Experimental data published in the supplement of paper PMC11880418.
Structures can show the parent of a compound that is named as a salt. The list shows a part of the results. The data scatter; read single values as rough.
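Note: High-content imaging of ALDEFLUOR-stained cells with Hoechst-labelled nuclei in 384-well plates, triplicate wells, scored as Z-score against 0.1% DMSO vehicle, negative meaning fewer ALDHbr cells.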

The compounds below were run on MKN45 (assay: ALDHbr (CSC) cell proportion score relative to DMSO vehicle (ratio to DMSO); breast (SUM159) / gastric (MKN45) / pancreatic (PANC1) / colon cancer lines; ALDHbr cells have high ALDH activity and are rich in cancer stem cells (CSC); higher = more CSC (ALDHbr) cells remaining). Conditions: 10 µM; 72 h.
`C[C@]12CC[C@@H]3c4ccc(O)cc4CC[C@H]3[C@@H]1CCC2=O` [Estrone] gave an ALDHbr of 0.967. `CCCCC1(COC(=O)CCC(=O)O)C(=O)N(c2ccccc2)N(c2ccccc2)C1=O` [Suxibuzone] was tested, and the ALDHbr was 0.949. `CCCCNc1c(C(=O)OCC)c(C)nc2c1cnn2CC` [Tracazolate hydrochloride] showed an ALDHbr of 0.609. In the case of `Cn1cnc([N+](=O)[O-])c1Sc1ncnc2[nH]cnc12` [Azathioprine], the ALDHbr is reported as 0.603. For `O=C(CCCCC(=O)Nc1c(I)cc(I)c(C(=O)O)c1I)Nc1c(I)cc(I)c(C(=O)O)c1I` [Iodipamide], the ALDHbr was 1.02. With `CN(C)CCOC(=O)COc1ccc(Cl)cc1` [Meclofenoxate hydrochloride] the ALDHbr was 0.865. `C#CCN(C)CCCOc1ccc(Cl)cc1Cl` [Clorgyline hydrochloride] was tested, and the ALDHbr was 0.544. `C#C[C@]1(O)CC[C@H]2[C@@H]3CCC4=C(CCC(=O)C4)[C@H]3CC[C@@]21C` [Norethynodrel] showed an ALDHbr of 0.653. With `c1cnc(N2CCN(Cc3ccc4c(c3)OCO4)CC2)nc1` [Piribedil hydrochloride] the ALDHbr was 1.2. `CCN(CC)CCOC(=O)C(c1ccccc1)c1ccccc1` [Adiphenine hydrochloride] gave an ALDHbr of 1.25. Work on `OCCOCCN1CCN(C2=Nc3ccccc3Sc3ccccc32)CC1` [Quetiapine hemifumarate] yielded an ALDHbr of 0.79. Compound `CC(C)N1CCN(c2ccc(OCC3COC(Cn4cncn4)(c4ccc(Cl)cc4Cl)O3)cc2)CC1` (configuration not stated) [Terconazole] has an ALDHbr of 0.539. For `CN1CCC[C@@H]1CCO[C@](C)(c1ccccc1)c1ccc(Cl)cc1` [Clemastine fumarate], the ALDHbr was 0.768. Work on `CC(C)Oc1ccc2c(=O)c(-c3ccccc3)coc2c1` [Ipriflavone] yielded an ALDHbr of 0.382. For `O=C(Cn1ccnc1[N+](=O)[O-])NCCO` [Etanidazole], the ALDHbr was 0.892. Compound `O=C1c2c(O)cccc2Cc2cccc(O)c21` [Anthralin] has an ALDHbr of 1.4. With `O=C(CCCN1CC=C(n2c(=O)[nH]c3ccccc32)CC1)c1ccc(F)cc1` [Droperidol] the ALDHbr was 0.735. For `N/C(=N\C(=O)c1nc(Cl)c(N)nc1N)NCc1ccccc1` [Benzamil hydrochloride], the ALDHbr was 1.58. With `CN1CCN2c3ncccc3Cc3ccccc3C2C1` (configuration not stated) [Mirtazapine] the ALDHbr was 1.12. In the case of `Nc1c2c(nc3ccccc13)CCCC2` [Tacrine hydrochloride], the ALDHbr is reported as 1.49. Compound `CC(=O)Nc1ccc(O)cc1` [Acetaminophen] has an ALDHbr of 0.932. `CN(C)CCOC(=O)C(c1ccccc1)C1(O)CCCC1` (configuration not stated) [Cyclopentolate hydrochloride] was tested, and the ALDHbr was 0.922. Compound `CN(C)CCN(Cc1ccc(Cl)cc1)c1ccccn1` [Chloropyramine hydrochloride] has an ALDHbr of 0.949. With `COc1c(O[C@@H]2O[C@H](CO)[C@@H](O)[C@H](O)[C@H]2O)cc2c(c1OC)-c1ccc(SC)c(=O)cc1[C@@H](NC(C)=O)CC2` [Thiocolchicoside] the ALDHbr was 1.53. `CC(C)Nc1cccnc1N1CCN(C(=O)c2cc3cc(NS(C)(=O)=O)ccc3[nH]2)CC1` [Delavirdine] gave an ALDHbr of 0.768. `CCCCC(=O)N(Cc1ccc(-c2ccccc2-c2nnn[nH]2)cc1)[C@H](C(=O)O)C(C)C` [Valsartan] showed an ALDHbr of 1.36. For `OC(CCN1CCCCC1)(c1ccccc1)c1ccccc1` [Pridinol methanesulfonate salt], the ALDHbr was 0.986. Work on `C/C=C(/C(=C/C)c1ccc(O)cc1)c1ccc(O)cc1` [Dienestrol] yielded an ALDHbr of 1.16. Work on `CC[N+](C)(C)Cc1ccccc1Br` [Bretylium tosylate] yielded an ALDHbr of 1.12. In the case of `COC1=C(OC)C(=O)C(CCCCCCCCCCO)=C(C)C1=O` [Idebenone], the ALDHbr is reported as 1.11. Compound `C[C@H](CCC(=O)O)[C@H]1CC[C@H]2[C@@H]3CC[C@@H]4C[C@H](O)CC[C@]4(C)[C@H]3CC[C@]12C` [Lithocholic acid] has an ALDHbr of 1.31. `Nc1nc(F)nc2c1ncn2[C@@H]1O[C@H](CO)[C@@H](O)[C@@H]1O` [Fludarabine] was tested, and the ALDHbr was 0.65. Compound `O=C(O)Cc1ccccc1Nc1c(Cl)cccc1Cl` [Diclofenac sodium] has an ALDHbr of 0.99. `O=C1Nc2ccc(Cl)cc2[C@@](C#CC2CC2)(C(F)(F)F)O1` [Efavirenz] gave an ALDHbr of 0.816. In the case of `CCN(CC)CCNC(=O)c1cc(Br)c(N)cc1OC` [Bromopride], the ALDHbr is reported as 1.09. Work on `CN(Cc1ccc(C(C)(C)C)cc1)Cc1cccc2ccccc12` [Butenafine Hydrochloride] yielded an ALDHbr of 0.805. In the case of `CCCCc1ncc(/C=C(\Cc2cccs2)C(=O)O)n1Cc1ccc(C(=O)O)cc1` [Eprosartan mesylate], the ALDHbr is reported as 0.966.
